Assay results as given in patent US20070259903A1 (priority 2006, published 2007).

System: Flu A (H1N1) New Caledonia
Assay: Virucidal activity: virus pre-incubated with compound 1 h, applied to MDCK cells 1 h, removed, CPE after 6 days
Type: cell-based, influenza A virus

Compound: CCCCN1C(=O)CC(=O)N(CCCC)C1=S [Compound C1, 4,6(1H, 5H)-Pyrimidinedione, 1,3-dibutyldihydro-2-thioxo]
- inactivation of the virus by treatment (FIG. 1): virtually complete inactivation
- dose that caused a 50% inactivation (EC50) (visual method, virus treated 1 hour at 37° C., MDCK indicator cells): 5.5 µg/mL
